We go through one compound from patent publication US7842802B2, “Vinorelbine derivatives” (priority 2003, dated 2010).

As usually defined, the melting point is the temperature of the solid-liquid transition.

Counter-ions that a name gives are not always drawn. Like-named read-outs stand apart in the source and are kept apart here. Entries with a single value are a further part of the results.

Regarding `CCC1=C[C@H]2CN(C1)Cc1c([nH]c3ccc(Sc4cccc(O)c4)cc13)[C@@](C(=O)OC)(c1cc3c(cc1OC)N(C)[C@H]1[C@@](O)(C(=O)OC)[C@H](OC(C)=O)C4C(CC)=CCN5CC[C@]31[C@H]45)C2` (some centres unmarked) (as salt: tartrate) [Example 18, 11′-(3-hydroxyphenysulfanyl)vinorelbine], the melting point (ditartrate salt) was 204 to 210 °C (dec.) and the melting point (trifluoroacetate salt) is 236 to 242 °C (dec.).
